The values below come from EP4431525A1 (Anaveon AG, dated 2024).

The target of test [1] is T1, His-tagged recombinant CD25 (UniProt P01589 22-213, limits assumed).
T1 construct: also called IL-2R alpha chain
T1 sequence (looked up): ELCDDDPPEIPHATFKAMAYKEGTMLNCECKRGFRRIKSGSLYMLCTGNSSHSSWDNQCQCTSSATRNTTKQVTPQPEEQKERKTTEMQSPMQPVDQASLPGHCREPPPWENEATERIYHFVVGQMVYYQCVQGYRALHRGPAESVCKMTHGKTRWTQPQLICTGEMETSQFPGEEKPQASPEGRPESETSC
The test is described as follows: SPR, His-CD25 captured.

The target in test [2] is T2, IL-2R on murine splenocytes (NK cells, CD8 T cells, Treg cells) (mouse, UniProt P01590 22-268; P16297 27-539; P34902 23-369).
T2 sequence (looked up) 1: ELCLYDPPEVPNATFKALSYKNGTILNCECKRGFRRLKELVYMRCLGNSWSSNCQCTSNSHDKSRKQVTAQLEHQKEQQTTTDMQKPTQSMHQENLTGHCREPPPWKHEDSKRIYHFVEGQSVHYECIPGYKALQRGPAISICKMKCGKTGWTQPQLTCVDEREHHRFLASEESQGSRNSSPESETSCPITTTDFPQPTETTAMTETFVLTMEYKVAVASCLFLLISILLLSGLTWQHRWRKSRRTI
T2 sequence (looked up) 2: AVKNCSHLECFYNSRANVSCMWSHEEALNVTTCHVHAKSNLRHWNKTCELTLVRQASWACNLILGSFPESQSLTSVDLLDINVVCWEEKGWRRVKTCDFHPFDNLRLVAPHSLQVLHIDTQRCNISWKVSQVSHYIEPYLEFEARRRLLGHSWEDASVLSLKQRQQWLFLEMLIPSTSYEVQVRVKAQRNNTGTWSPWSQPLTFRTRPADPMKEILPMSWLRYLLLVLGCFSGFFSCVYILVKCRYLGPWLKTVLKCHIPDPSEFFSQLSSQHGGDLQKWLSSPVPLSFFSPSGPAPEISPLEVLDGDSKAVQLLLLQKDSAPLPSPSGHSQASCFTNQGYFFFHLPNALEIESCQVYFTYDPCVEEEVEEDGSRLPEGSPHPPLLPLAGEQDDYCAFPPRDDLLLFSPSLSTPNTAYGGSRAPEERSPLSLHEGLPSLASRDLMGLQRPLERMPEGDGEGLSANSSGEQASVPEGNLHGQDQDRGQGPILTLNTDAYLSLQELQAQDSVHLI
T2 sequence (looked up) 3: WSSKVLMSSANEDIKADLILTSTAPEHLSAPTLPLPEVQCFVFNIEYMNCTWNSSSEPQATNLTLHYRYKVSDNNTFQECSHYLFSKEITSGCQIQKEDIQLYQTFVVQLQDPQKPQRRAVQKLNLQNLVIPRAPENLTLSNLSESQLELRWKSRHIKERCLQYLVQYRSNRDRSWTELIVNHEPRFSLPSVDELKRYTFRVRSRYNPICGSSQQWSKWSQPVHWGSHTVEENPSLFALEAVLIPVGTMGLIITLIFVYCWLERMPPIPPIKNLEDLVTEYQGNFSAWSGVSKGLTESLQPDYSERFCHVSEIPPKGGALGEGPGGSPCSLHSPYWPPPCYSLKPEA
The test is described as follows: cell-based or functional assay.

Test [3] deals with T2, IL-2R on murine splenocytes (NK cells, …). The test is described as follows: cell-based or functional assay. This is another data set of the same source.
The target of test [4] is T3, CD122/CD132 complex (His-tagged, Acro Biosystem, Cat # ILG-H5283) (UniProt P14784 27-239; P31785 23-262, limits assumed).
T3 construct: also called dimeric IL-2 receptor
T3 sequence (looked up) 1: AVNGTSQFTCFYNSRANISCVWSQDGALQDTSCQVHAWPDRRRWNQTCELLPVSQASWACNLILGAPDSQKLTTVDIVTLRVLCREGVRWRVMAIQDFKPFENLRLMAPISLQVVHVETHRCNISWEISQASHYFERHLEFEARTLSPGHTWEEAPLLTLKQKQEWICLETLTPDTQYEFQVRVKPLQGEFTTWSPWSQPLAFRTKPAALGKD
T3 sequence (looked up) 2: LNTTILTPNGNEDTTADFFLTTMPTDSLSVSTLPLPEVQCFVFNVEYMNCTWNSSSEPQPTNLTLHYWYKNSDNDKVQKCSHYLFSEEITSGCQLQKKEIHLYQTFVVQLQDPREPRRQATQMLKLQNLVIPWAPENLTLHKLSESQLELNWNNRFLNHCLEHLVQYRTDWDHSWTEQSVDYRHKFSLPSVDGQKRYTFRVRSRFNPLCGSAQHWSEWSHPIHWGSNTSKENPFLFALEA
The test is described as follows: SPR, CD122/CD132 captured on NTA chip. (In general: In SPR one partner is held on a chip, and binding of the other changes the refractive index at the surface.)

B1: DXM339 (other)
heavy: EVQLVQSGAEVKKPGESLKISCKGSGYSFTNFYIHWVRQAPGQRLEWMGSIYPNYGDTAYNQKFKDRFVFSLDTSVSTAYLQISSLKAEDTAVYYCARGYSYAMDYWGQGTTVTVSSASTKGPSVFPLAPSSKSTSGGTAALGCLVKDYFPEPVTVSWNSGALTSGVHTFPAVLQSSGLYSLSSVVTVPSSSLGTQTYICNVNHKPSNTKVDKRV[letters of human IgG1 Fc with changes left out]
light: DIQMTQSPSSVSASVGDRVTITCSASQGISGGGNFHLRPRDLISNINVIVLELKGSETTFMCEYADETATIVEFLNRWITFSQSIISTLTPTSSSTKKTQLQLEHLLLDLQMILNGINNYKNPKLTRMLTFKFYMPKKATELKHLQCLEEELKPLEEVLNLAQSKGGGDLNWYQQKPGKAPKLLIYHTSSLHSGVPSRFSGSGSGTDFTLTISSLQPEDFATYYCQYYSKDLLTFGGGTKLEIKRTVAAPSVFIFPPSDEQLKSGTASVVCLLNNFYPREAKVQWKVDNALQSGNSQESVTEQDSKDSTYSLSSTLTLSKADYEKHKVYACEVTHQGLSSPVTKSFNRGECRTVAAPSVFIFPPSDEQLKSGTASVVCLLNNFYPREAKVQWKVDNALQSGNSQESVTEQDSKDSTYSLSSTLTLSKADYEKHKVYACEVTHQGLSSPVTKSFNRGEC
notes: Antibody C, IL-2CP in CDR-L1, linkers 2/3 AA
Regarding B1, in test [1], the dissociation constant (Kd) (usually a measure of binding affinity in units of concentration) amounted to 0.18 nM.

B2: FUE433 (other)
heavy: EVQLVQSGAEVKKPGESLKISCKGSGYSFTNFYIHWVRQAPGQRLEWMGSIYPNYGDTAYNQKFKDRFVFSLDTSVSTAYLQISSLKAEDTAVYYCARGYSYAMDYWGQGTTVTVSSASTKGPSVFPLAPSSKSTSGGTAALGCLVKDYFPEPVTVSWNSGALTSGVHTFPAVLQSSGLYSLSSVVTVPSSSLGTQTYICNVNHKPSNTKVDKRV[letters of human IgG1 Fc with changes left out]
light: DIQMTQSPSSVSASVGDRVTITCSASQGISGGGGNFHLRPRDLISNINVIVLELKGSETTFMCEYADETATIVEFLNRWITFSQSIISTLTPTSSSTKKTQLQLEHLLLDLQMILNGINNYKNPKLTRMLTFKFYMPKKATELKHLQCLEEELKPLEEVLNLAQSKGGGGDLNWYQQKPGKAPKLLIYHTSSLHSGVPSRFSGSGSGTDFTLTISSLQPEDFATYYCQYYSKDLLTFGGGTKLEIKRTVAAPSVFIFPPSDEQLKSGTASVVCLLNNFYPREAKVQWKVDNALQSGNSQESVTEQDSKDSTYSLSSTLTLSKADYEKHKVYACEVTHQGLSSPVTKSFNRGECRTVAAPSVFIFPPSDEQLKSGTASVVCLLNNFYPREAKVQWKVDNALQSGNSQESVTEQDSKDSTYSLSSTLTLSKADYEKHKVYACEVTHQGLSSPVTKSFNRGEC
notes: Antibody C, IL-2CP in CDR-L1, linkers 3/4 AA
For the molecule B2, the Kd in test [1] is 0.16 nM.

B3: GLK754 (other)
heavy: EVQLVQSGAEVKKPGESLKISCKGSGYSFTNFYIHWVRQAPGQRLEWMGSIYPNYGDTAYNQKFKDRFVFSLDTSVSTAYLQISSLKAEDTAVYYCARGYSYAMDYWGQGTTVTVSSASTKGPSVFPLAPSSKSTSGGTAALGCLVKDYFPEPVTVSWNSGALTSGVHTFPAVLQSSGLYSLSSVVTVPSSSLGTQTYICNVNHKPSNTKVDKRV[letters of human IgG1 Fc with changes left out]
light: DIQMTQSPSSVSASVGDRVTITCSASQGISGGGGGSGGGGSGGGNFHLRPRDLISNINVIVLELKGSETTFMCEYADETATIVEFLNRWITFSQSIISTLTPTSSSTKKTQLQLEHLLLDLQMILNGINNYKNPKLTRMLTFKFYMPKKATELKHLQCLEEELKPLEEVLNLAQSKGGGGSGGGGSGGGGDLNWYQQKPGKAPKLLIYHTSSLHSGVPSRFSGSGSGTDFTLTISSLQPEDFATYYCQYYSKDLLTFGGGTKLEIKRTVAAPSVFIFPPSDEQLKSGTASVVCLLNNFYPREAKVQWKVDNALQSGNSQESVTEQDSKDSTYSLSSTLTLSKADYEKHKVYACEVTHQGLSSPVTKSFNRGECRTVAAPSVFIFPPSDEQLKSGTASVVCLLNNFYPREAKVQWKVDNALQSGNSQESVTEQDSKDSTYSLSSTLTLSKADYEKHKVYACEVTHQGLSSPVTKSFNRGEC
notes: Antibody C, IL-2CP in CDR-L1, linkers 13/14 AA
In the case of B3, the dissociation constant (Kd) in test [1] came to 0.2 nM.

B4: LQM346 (other)
heavy: EVQLVQSGAEVKKPGESLKISCKGSGYSFTNFYIHWVRQAPGQRLEWMGSIYPNYGDTAYNQKFKDRFVFSLDTSVSTAYLQISSLKAEDTAVYYCARGYSYAMDYWGQGTTVTVSSASTKGPSVFPLAPSSKSTSGGTAALGCLVKDYFPEPVTVSWNSGALTSGVHTFPAVLQSSGLYSLSSVVTVPSSSLGTQTYICNVNHKPSNTKVDKRV[letters of human IgG1 Fc with changes left out]
light: DIQMTQSPSSVSASVGDRVTITCSASQGISGGGGGSGNFHLRPRDLISNINVIVLELKGSETTFMCEYADETATIVEFLNRWITFSQSIISTLTPTSSSTKKTQLQLEHLLLDLQMILNGINNYKNPKLTRMLTFKFYMPKKATELKHLQCLEEELKPLEEVLNLAQSKGGGGSGGDLNWYQQKPGKAPKLLIYHTSSLHSGVPSRFSGSGSGTDFTLTISSLQPEDFATYYCQYYSKDLLTFGGGTKLEIKRTVAAPSVFIFPPSDEQLKSGTASVVCLLNNFYPREAKVQWKVDNALQSGNSQESVTEQDSKDSTYSLSSTLTLSKADYEKHKVYACEVTHQGLSSPVTKSFNRGECRTVAAPSVFIFPPSDEQLKSGTASVVCLLNNFYPREAKVQWKVDNALQSGNSQESVTEQDSKDSTYSLSSTLTLSKADYEKHKVYACEVTHQGLSSPVTKSFNRGEC
notes: Antibody C, IL-2CP in CDR-L1, linkers 6/7 AA
Take B4: the Kd in test [1] came out at 0.15 nM.

B5: Proleukin (aldesleukin) (ligand)
chain: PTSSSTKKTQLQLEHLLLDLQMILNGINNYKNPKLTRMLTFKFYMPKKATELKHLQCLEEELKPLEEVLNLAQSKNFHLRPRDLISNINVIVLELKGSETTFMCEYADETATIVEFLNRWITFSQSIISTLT
For the molecule B5, in test [2], the “EC50 CD8 cells (pSTAT5, mouse splenocytes)” value amounted to 4.1 nM and the “EC50 Treg cells (pSTAT5, mouse splenocytes)” value was less than 16 pM. In addition, in test [3], the “EC50 pSTAT5 on CD8 cells (mouse splenocytes)” value amounted to 11.9 nM, the “EC50 pSTAT5 on NK cells (mouse splenocytes)” value came to 2.51 nM and the “EC50 pSTAT5 on Treg cells (mouse splenocytes)” value was less than 20 pM. Besides, in test [4], the Kd is 0.42 nM.
